Measurements as given in PubChem BioAssay AID1347428 (National Center for Advancing Translational Sciences (NCATS), 2020).
Hit rate of the full screen: of about 91,000 compounds, about 290 (0.32%) were called active. The inconclusive results got no clear call from the source; some entries with a clear call stand among them for comparison. Calls come from the whole dose curve; as a rule, active = well fitted inhibition curve with a large enough effect; inconclusive = small, poorly fitted or top-dose-only effect; inactive = no such curve, though single readings can be large or run the other way. Where the call is inconclusive, the potency comes from a doubtful curve fit.

The compounds below were run against Single-stranded DNA cytosine deaminase (Homo sapiens) (UniProt Q9GZX7) (assay: Primary qHTS assay for inhibitors of Activation Induced Cytidine Deaminase (AID): AID signal). Details: AID deamination FRET fluorescence, UDG-coupled, 4 h; series mostly up to 115 µM.
Note: nearly all actives have a fitted effect of over 25% in size.
Potency is the fitted concentration of half-maximal effect; tags give direction and shape of the fitted curve.

Chain of UniProt Q9GZX7 (Q9GZX7 whole entry, looked up): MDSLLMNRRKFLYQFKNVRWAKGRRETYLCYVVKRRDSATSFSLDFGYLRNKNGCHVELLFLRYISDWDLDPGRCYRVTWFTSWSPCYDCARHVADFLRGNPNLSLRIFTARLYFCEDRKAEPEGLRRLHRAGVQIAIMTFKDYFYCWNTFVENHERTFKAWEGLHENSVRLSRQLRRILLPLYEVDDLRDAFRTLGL

Question: `Cc1n[nH]c(C)c1S(=O)(=O)Nc1ncn(Cc2ccc(F)cc2Cl)n1` was tested. Which Potency did it give?
Answer: Its Potency is “inactive”.

Question: `O=C(Nc1cccc(C(=O)N2CCCCC2)c1)c1nsc2ccccc12` was tested. Which Potency did it give?
Answer: Its Potency is inconclusive: 50.1 µM [inhibitor, partial curve, poor fit].

Question: Which Potency does the source give for `Cc1cc(Nc2cccc(C(F)(F)F)c2)nc2ccc(NC(=O)c3ccc(N(C)C)cc3)cc12` here?
Answer: The Potency was inconclusive: 39.8 µM [inhibitor, full curve, poor fit].

Question: For `CCCCCCCCc1ccc(/C(C=[N+](C)C)=C/N(C)C)cc1`, which Potency is on record?
Answer: The Potency was inconclusive: 79.4 µM [inhibitor, partial curve].

Question: With `COc1ccc(-c2c3c(=O)n(C)c(=O)n(C)c3cn2-c2cccc(C)c2)cc1` as the compound, how does the Potency read?
Answer: Its Potency is “inactive”.

Question: `CCOC(=O)c1ccc(NC(=O)CC2SC(c3cc4ccccc4oc3=O)=NC2=O)cc1` (stereo unspecified) was tested. Which Potency did it give?
Answer: Its Potency is “inactive”.

Question: `COc1ccccc1-c1nc(S(=O)(=O)c2ccc(Cl)cc2)c(N2CCCCCC2)o1` was tested. Which Potency did it give?
Answer: Its Potency is inconclusive: 56.2 µM [inhibitor, partial curve, poor fit].

Question: With `CCOC(=O)c1ccc(-n2c(N)c(C(=O)OC)c3nc4ccccc4nc32)cc1` as the compound, how does the Potency read?
Answer: The Potency was inconclusive: 15.8 µM [inhibitor, full curve, poor fit].

Question: `CCN(CC)S(=O)(=O)c1ccc(NC(=O)[C@H](CSCc2ccccc2)N2Cc3ccccc3C2=O)cc1` was tested. Which Potency did it give?
Answer: The Potency was inconclusive: 28.2 µM [inhibitor, full curve, poor fit].

Question: How did the Potency turn out when `COc1ccccc1N1CCN(S(=O)(=O)c2c(C)sc3ncn(CC(=O)N(C)c4ccc(C(C)C)cc4)c(=O)c23)CC1` was run?
Answer: Its Potency is inconclusive: 10 µM [inhibitor, partial curve, poor fit].

Question: How did the Potency turn out when `Cc1ccc(NCc2cccn2-c2nnc(N3CCC(C(=O)NCc4ccc(OC(C)C)cc4)CC3)s2)cc1` was run?
Answer: Its Potency is inconclusive: 44.7 µM [inhibitor, partial curve, poor fit].

Question: `Cc1cccc(C)c1-n1ncc(C(=O)Nc2ccc3c(c2)OCCO3)c1C1CCN(C(=O)OC(C)(C)C)CC1` was tested. Which Potency did it give?
Answer: Its Potency is inconclusive: 12.6 µM [inhibitor, full curve].

Question: Which Potency does the source give for `CCCCn1c(SCc2cc(=O)oc3cc(C)ccc23)n[nH]c1=O` here?
Answer: The Potency was “inactive”.

Question: With `CC(C)OCCCN(Cc1ccco1)C(=O)c1cc2c(s1)-c1ccccc1OC2` as the compound, how does the Potency read?
Answer: Its Potency is inconclusive: 35.5 µM [inhibitor, partial curve].

Question: Which Potency does the source give for `COc1cccc(NC(=O)Nc2cc(-c3cn4cccnc4n3)ccc2C)c1` here?
Answer: Its Potency is inconclusive: 89.1 µM [inhibitor, single point].

Question: With `CCOc1ccccc1N(C)C(=O)Cn1cnc2sc(C)c(S(=O)(=O)N3CCC(C)CC3)c2c1=O` as the compound, how does the Potency read?
Answer: Its Potency is inconclusive: 35.5 µM [inhibitor, full curve, poor fit].

Question: How did the Potency turn out when `O=C(Nc1cccc(Cl)c1)c1c(NC(=O)C(F)(F)F)sc2c1CCCC2` was run?
Answer: Its Potency is inconclusive: 79.4 µM [inhibitor, partial curve, poor fit].

Question: How did the Potency turn out when `CN(C(=O)Cn1c(=O)n(CCCS(=O)(=O)C2CCCCC2)c(=O)c2ccccc21)c1ccccc1` was run?
Answer: The Potency was “inactive”.

Question: `CSc1ccc(CCNc2ncnc3onc(C)c23)cc1` was tested. Which Potency did it give?
Answer: Its Potency is inconclusive: 39.8 µM [inhibitor, single point].

Question: With `CCNCC(O)COCc1ccccc1OC` (stereo unspecified) as the compound, how does the Potency read?
Answer: Its Potency is “inactive”.

Question: Which Potency does the source give for `CCCCOc1c(Cl)cc(C(=O)N(Cc2ccc(C)o2)C2CCS(=O)(=O)C2)cc1Cl` (stereo unspecified) here?
Answer: The Potency was inconclusive: 39.8 µM [inhibitor, full curve, poor fit].

Question: How did the Potency turn out when `COc1ccc(S(=O)(=O)N2CCC(c3ccncc3)CC2)cc1Cl` was run?
Answer: The Potency was inconclusive: 14.1 µM [inhibitor, full curve, poor fit].

Question: Which Potency does the source give for `CC(C)Cc1nc2cccnc2n1C1CCN(S(=O)(=O)c2ccc(Br)s2)CC1` here?
Answer: Its Potency is inconclusive: 35.5 µM [inhibitor, partial curve, poor fit].

Question: For `Cc1ccc(C(=O)/C=C/c2ccc(/C=C/C(=O)c3ccc(C)cc3)o2)cc1`, which Potency is on record?
Answer: Its Potency is “inactive”.

Question: `CN(C)CCN(Cc1cccc(F)c1)C(=O)c1cccc(S(C)(=O)=O)c1` was tested. Which Potency did it give?
Answer: The Potency was “inactive”.

Question: For `COc1cc(C)ccc1OCCSc1nc2ccc(NC(=O)c3ccc(F)cc3)cc2s1`, which Potency is on record?
Answer: Its Potency is “inactive”.

Question: Which Potency does the source give for `Cc1ccc(CNC(=O)c2ccc3c(c2)nc(C)n3-c2cc(C)cc(C)c2)cc1` here?
Answer: The Potency was inconclusive: 50.1 µM [inhibitor, partial curve, poor fit].

Question: Which Potency does the source give for `Cc1ccc(C)c(N2C(=O)N(Cc3cc(=O)n4ccccc4n3)c3ccccc3S2(=O)=O)c1` here?
Answer: Its Potency is inconclusive: 14.1 µM [inhibitor, full curve].

Question: With `CCC1CCCCN1CCCNC(=O)c1cc2c(Cl)nc3ccccc3c2s1` (stereo unspecified) as the compound, how does the Potency read?
Answer: Its Potency is inconclusive: 50.1 µM [inhibitor, partial curve, poor fit].

Question: How did the Potency turn out when `CC(C)N1CCC(Nc2nc(-c3cccnc3)nc3ccccc23)CC1` was run?
Answer: Its Potency is “inactive”.

Question: How did the Potency turn out when `COc1cc(OC)cc(C(=O)Nc2ccc3nc(N4CCCCC4)cc(C)c3c2)c1` was run?
Answer: The Potency was inconclusive: 56.2 µM [inhibitor, partial curve, poor fit].

Question: How did the Potency turn out when `Cc1ccc(NC(=O)CC(C)(C(=O)O)c2ccccc2)c(C)c1` (stereo unspecified) was run?
Answer: The Potency was “inactive”.

Question: Which Potency does the source give for `CC(=O)Nc1cc(NC(C)=O)cc(-c2nc3ccccc3[nH]2)c1` here?
Answer: Its Potency is inconclusive: 25.1 µM [inhibitor, full curve, poor fit].

Question: How did the Potency turn out when `COC(=O)c1ccc(COC(=O)c2cc3c(s2)CCC3)o1` was run?
Answer: Its Potency is “inactive”.

Question: For `CCN(CC)CCNC(=O)c1ccc2c(c1)sc1nc(-c3ccc(F)cc3)cn12`, which Potency is on record?
Answer: The Potency was inconclusive: 56.2 µM [inhibitor, partial curve, poor fit].

Question: `Cc1ccc(CNC(=O)c2ccc(Cn3c(SCc4ccccc4F)nc4cccnc43)cc2)cc1` was tested. Which Potency did it give?
Answer: The Potency was inconclusive: 22.4 µM [inhibitor, partial curve, poor fit].

Question: Which Potency does the source give for `CCOc1cc(CNc2ccc(O)cc2)ccc1OCc1ccc(Cl)cc1` here?
Answer: The Potency was inconclusive: 22.4 µM [inhibitor, full curve, poor fit].

Question: Which Potency does the source give for `CCOC(=O)c1cc(-c2ccccc2)n(CC(=O)N(C)c2ccc(OC)cc2)c1C` here?
Answer: The Potency was inconclusive: 56.2 µM [inhibitor, partial curve, poor fit].

Question: For `N#Cc1ccc(CN2CCN(Cc3nnsc3Cl)CC2)cc1`, which Potency is on record?
Answer: Its Potency is “inactive”.

Question: With `COc1cc(-c2nc(Cn3nnc(C(=O)Nc4cc(C)cc(C)c4)c3C)c(C)o2)cc(OC)c1OC` as the compound, how does the Potency read?
Answer: The Potency was inconclusive: 3.16 µM [inhibitor, partial curve, poor fit].

Question: With `COc1cccc(-c2nc(CSCC(=O)NCCc3ccc(Cl)cc3)c(C)o2)c1` as the compound, how does the Potency read?
Answer: The Potency was inconclusive: 2.82 µM [inhibitor, full curve, poor fit].

Question: With `CCCCN(CCCC)CC(O)Cn1cc(/C=C/C(=O)c2ccccc2)c2ccccc21` (stereo unspecified) as the compound, how does the Potency read?
Answer: Its Potency is active: 31.6 µM.

Question: For `COc1ccc(-c2nc(CSCC(=O)N3CCN(c4ccc(OC)cc4)CC3)c(C)o2)cc1`, which Potency is on record?
Answer: Its Potency is inconclusive: 79.4 µM [inhibitor, single point].

Question: For `CCCN(c1ccccc1CC)S(=O)(=O)c1ccc2c(c1)CC(C)N2C(=O)C1CC1` (stereo unspecified), which Potency is on record?
Answer: The Potency was inconclusive: 56.2 µM [inhibitor, partial curve, poor fit].

Question: With `CC1=C(C(=O)c2ccccc2)C(c2ccc(Br)cc2)NC(=O)N1` (stereo unspecified) as the compound, how does the Potency read?
Answer: The Potency was “inactive”.

Question: With `CCOc1ccc(NC(=O)c2cn(C)c(=O)c3cc(OC)c(OC)cc23)cc1` as the compound, how does the Potency read?
Answer: The Potency was inconclusive: 3.16 µM [inhibitor, full curve, poor fit].

Question: With `N#Cc1ccc(Nc2nc(CN3CCOCC3)nc3sc4c(c23)CCCC4)cc1` as the compound, how does the Potency read?
Answer: Its Potency is inconclusive: 63.1 µM [inhibitor, partial curve, poor fit].

Question: Which Potency does the source give for `COc1ccc(-c2onc(C)c2C)cc1S(=O)(=O)N(C)Cc1ccco1` here?
Answer: The Potency was inconclusive: 79.4 µM [inhibitor, single point].

Question: Which Potency does the source give for `COc1ccc(OCCCCn2c(C3CC(=O)N(c4cccc(Cl)c4)C3)nc3ccccc32)cc1` (stereo unspecified) here?
Answer: Its Potency is inconclusive: 25.1 µM [inhibitor, full curve, poor fit].

Question: For `Cc1nn(-c2ncnc3nc[nH]c23)c2c1C(c1cccc(F)c1)CC(=O)N2` (stereo unspecified), which Potency is on record?
Answer: Its Potency is “inactive”.

Question: For `Cc1ccc(Cl)cc1NC(=O)CSC1=Nc2ccccc2C2=NC(Cc3ccccc3)C(=O)N12` (stereo unspecified), which Potency is on record?
Answer: Its Potency is inconclusive: 44.7 µM [inhibitor, partial curve, poor fit].

Question: How did the Potency turn out when `Cc1ccc(CNC(=O)c2ccc(CSCc3ccc(C)cc3)o2)cc1` was run?
Answer: Its Potency is inconclusive: 15.8 µM [inhibitor, full curve, poor fit].

Question: `Cc1onc(-c2ccccc2)c1-c1nnc(CSc2nnnn2C2CCCCC2)o1` was tested. Which Potency did it give?
Answer: Its Potency is inconclusive: 100 µM [inhibitor, partial curve, poor fit].

Question: `C=Cc1ccc(CSc2nc(-c3ccccc3Cl)nc3c2Cc2c(CO)cnc(C)c2O3)cc1` was tested. Which Potency did it give?
Answer: Its Potency is inconclusive: 50.1 µM [inhibitor, partial curve, poor fit].

Question: Which Potency does the source give for `Cc1cccc(N2C(=O)CSC23C(=O)N(Cc2cccc(C(F)(F)F)c2)c2ccccc23)c1` (stereo unspecified) here?
Answer: Its Potency is inconclusive: 10 µM [inhibitor, full curve, poor fit].

Question: With `CSc1nc2sc3c(c2c(=O)n1-c1ccccc1C)CCCC3` as the compound, how does the Potency read?
Answer: The Potency was inconclusive: 35.5 µM [inhibitor, partial curve].

Question: With `Cc1ccc(NS(=O)(=O)c2ccc3[nH]c4c(c3c2)CCCCCC4)cc1Cl` as the compound, how does the Potency read?
Answer: The Potency was “inactive”.

Question: For `O=C(Nc1sc2c(c1C(=O)O)CCCC2)c1cccnc1`, which Potency is on record?
Answer: Its Potency is “inactive”.

Question: `O=S(=O)(c1cccc(C(F)(F)F)c1)n1c(/C=C/c2ccccc2)nc2ccccc21` was tested. Which Potency did it give?
Answer: Its Potency is inconclusive: 50.1 µM [inhibitor, partial curve, poor fit].

Question: Which Potency does the source give for `Cc1cc(N2CCCCC2)nc2ccc(NC(=O)c3cccc(F)c3)cc12` here?
Answer: Its Potency is inconclusive: 17.8 µM [inhibitor, full curve, poor fit].

Question: Which Potency does the source give for `CCCCN(C)S(=O)(=O)c1cc(-c2nnc3c4ccccc4c(C)nn23)ccc1C` here?
Answer: Its Potency is inconclusive: 7.08 µM [inhibitor, full curve, poor fit].
